The IC50 comes from the fitted curve, where viability falls to half of the control; a limit (>, <) means that the fit lies beyond the doses tested. AUC, from the same fit, is the share of area under the viability curve across the 256-fold dose range; values near 1 show little effect.
Compound: Cn1c(=O)n(-c2ccc(C(C)(C)C#N)cc2)c2c3cc(-c4cnc5ccccc5c4)ccc3ncc21 [NVP-BEZ235]
Test: Viability of human cancer cell lines after 72 h of drug (GDSC screen)
Experimental: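 Human cancer cell lines in 384-well plates, medium with 10% serum, drug for 72 h over a 256-fold dose range (nine 2-fold or five 4-fold steps up to the top dose). Adherent lines were fixed and stained with the nucleic acid dye Syto60, suspension lines read with resazurin; signal relative to control wells, capped at 0 and 100%. One two-parameter sigmoid per drug and line, fitted in a mixed model over all curves with the slope shared within a line.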

Row | Cell Line | AUC | IC50
1 | SBC-3 (small cell lung carcinoma, adherent, top dose 0.25 µM) | 0.691 | 50.5 nM
2 | SBC-5 (small cell lung carcinoma, adherent, top dose 0.25 µM) | 0.779 | 82.7 nM
3 | SCC90 (head and neck, adherent, top dose 0.25 µM) | 0.902 | > 250 nM
4 | SCC-9 (head and neck, adherent, top dose 0.25 µM) | 0.854 | > 250 nM
5 | SCC-15 (head and neck, adherent, top dose 0.25 µM) | 0.753 | 110 nM
6 | SCC-25 (head and neck, adherent, top dose 0.25 µM) | 0.742 | 85.4 nM
7 | SCH (stomach, adherent, top dose 0.25 µM) | 0.693 | 57.1 nM
8 | SF126 (glioma, adherent, top dose 0.25 µM) | 0.616 | 33.3 nM
9 | SF268 (glioma, adherent, top dose 0.25 µM) | 0.805 | 139 nM
10 | SF295 (glioma, adherent, top dose 0.25 µM) | 0.536 | 19.8 nM
11 | SF539 (glioma, adherent, top dose 0.25 µM) | 0.694 | 51.4 nM
12 | SH-4 (melanoma, adherent, top dose 0.25 µM) | 0.734 | 108 nM
13 | SHP-77 (small cell lung carcinoma, semi-adherent, top dose 0.25 µM) | 0.965 | > 250 nM
14 | SIMA (neuroblastoma, adherent, top dose 0.25 µM) | 0.902 | > 250 nM
15 | SISO (cervix, adherent, top dose 0.25 µM) | 0.712 | 60.1 nM
16 | SJRH30 (rhabdomyosarcoma, adherent, top dose 0.25 µM) | 0.824 | 156 nM
17 | SJSA-1 (bone, adherent, top dose 0.25 µM) | 0.621 | 35.2 nM
18 | SK-CO-1 (large intestine, adherent, top dose 0.25 µM) | 0.872 | 214 nM
19 | SK-ES-1 (Ewing sarcoma, semi-adherent, top dose 0.25 µM) | 0.642 | 39.6 nM
20 | SK-GT-2 (stomach, adherent, top dose 0.25 µM) | 0.445 | 10.9 nM
21 | SK-GT-4 (oesophagus, adherent, top dose 0.25 µM) | 0.608 | 33.3 nM
22 | SK-HEP-1 (liver, adherent, top dose 0.25 µM) | 0.694 | 52.4 nM
23 | SK-LMS-1 (soft tissue, adherent, top dose 0.25 µM) | 0.594 | 27.9 nM
24 | SK-LU-1 (lung adenocarcinoma, adherent, top dose 0.25 µM) | 0.596 | 30.9 nM
25 | SK-MEL-1 (melanoma, suspension, top dose 0.25 µM) | 0.904 | > 250 nM
26 | SK-MEL-2 (melanoma, adherent, top dose 0.25 µM) | 0.764 | 94.5 nM
27 | SK-MEL-3 (melanoma, adherent, top dose 0.25 µM) | 0.852 | 242 nM

Row | Cell Line | AUC | IC50
28 | SK-MEL-5 (melanoma, adherent, top dose 0.25 µM) | 0.727 | 81.1 nM
29 | SK-MEL-28 (melanoma, adherent, top dose 2 µM) | 0.441 | 86.7 nM
30 | SK-MEL-31 (melanoma, adherent, top dose 0.25 µM) | 0.885 | > 250 nM
31 | SK-MES-1 (lung squamous cell carcinoma, adherent, top dose 0.25 µM) | 0.695 | 58.1 nM
32 | SK-MG-1 (glioma, adherent, top dose 0.25 µM) | 0.535 | 19.5 nM
33 | SK-MM-2 (myeloma, suspension, top dose 0.25 µM) | 0.865 | 238 nM
34 | SK-N-AS (neuroblastoma, adherent, top dose 0.25 µM) | 0.764 | 105 nM
35 | SK-N-FI (neuroblastoma, adherent, top dose 0.25 µM) | 0.809 | 129 nM
36 | SK-N-SH (neuroblastoma, adherent, top dose 0.25 µM) | 0.759 | 86.8 nM
37 | SK-OV-3 (ovary, adherent, top dose 0.25 µM) | 0.756 | 106 nM
38 | SK-PN-DW (Ewing sarcoma, adherent, top dose 0.25 µM) | 0.619 | 33.6 nM
39 | SKG-IIIa (cervix, adherent, top dose 0.25 µM) | 0.788 | 153 nM
40 | SKM-1 (haematopoietic neoplasm, suspension, top dose 0.25 µM) | 0.618 | 34.1 nM
41 | SKN (uterus, adherent, top dose 0.25 µM) | 0.599 | 31 nM
42 | SKN-3 (head and neck, adherent, top dose 0.25 µM) | 0.817 | 173 nM
43 | SLVL (B-cell lymphoma, suspension, top dose 0.25 µM) | 0.843 | 193 nM
44 | SNB75 (glioma, adherent, top dose 0.25 µM) | 0.665 | 55.7 nM
45 | SNG-M (endometrium, adherent, top dose 0.25 µM) | 0.749 | 79.6 nM
46 | SNU-61 (large intestine, adherent, top dose 0.25 µM) | 0.948 | > 250 nM
47 | SNU-81 (large intestine, adherent, top dose 0.25 µM) | 0.73 | 89.6 nM
48 | SNU-182 (liver, adherent, top dose 0.25 µM) | 0.833 | 172 nM
49 | SNU-387 (liver, adherent, top dose 0.25 µM) | 0.672 | 50.7 nM
50 | SNU-407 (large intestine, adherent, top dose 0.25 µM) | 0.765 | 106 nM
51 | SNU-423 (liver, adherent, top dose 0.25 µM) | 0.722 | 74.9 nM
52 | SNU-449 (liver, adherent, top dose 0.25 µM) | 0.746 | 85.6 nM
53 | SNU-C1 (large intestine, suspension, top dose 0.25 µM) | 0.67 | 58.6 nM
54 | SNU-C2B (large intestine, adherent, top dose 0.25 µM) | 0.79 | 152 nM

Row | Cell Line | AUC | IC50
55 | SNU-C5 (large intestine, adherent, top dose 0.25 µM) | 0.864 | > 250 nM
56 | SR (lymphoid neoplasm, suspension, top dose 0.25 µM) | 0.588 | 26.5 nM
57 | ST486 (Burkitt lymphoma, suspension, top dose 0.25 µM) | 0.807 | 111 nM
58 | STS-0421 (soft tissue, adherent, top dose 0.25 µM) | 0.77 | 111 nM
59 | SU-DHL-4 (B-cell lymphoma, suspension, top dose 0.25 µM) | 0.932 | 205 nM
60 | SU-DHL-5 (B-cell lymphoma, suspension, top dose 0.25 µM) | 0.373 | 7.67 nM
61 | SU-DHL-6 (B-cell lymphoma, suspension, top dose 0.25 µM) | 0.465 | 12.9 nM
62 | SU-DHL-8 (B-cell lymphoma, suspension, top dose 0.25 µM) | 0.837 | 151 nM
63 | SU-DHL-10 (B-cell lymphoma, suspension, top dose 0.25 µM) | 0.53 | 18.5 nM
64 | SU-DHL-16 (B-cell lymphoma, suspension, top dose 0.25 µM) | 0.61 | 28.9 nM
65 | SUIT-2 (pancreas, adherent, top dose 0.25 µM) | 0.693 | 56 nM
66 | SUP-B8 (B-cell leukaemia, suspension, top dose 0.25 µM) | 0.665 | 44.8 nM
67 | SUP-B15 (lymphoblastic leukaemia, suspension, top dose 0.25 µM) | 0.58 | 25.6 nM
68 | SUP-HD1 (Hodgkin lymphoma, suspension, top dose 0.25 µM) | 0.748 | 77.3 nM
69 | SUP-M2 (anaplastic large cell lymphoma, suspension, top dose 0.25 µM) | 0.701 | 48.9 nM
70 | SUP-T1 (T-cell lymphoblastic leukaemia, suspension, top dose 0.25 µM) | 0.799 | 107 nM
71 | SW13 (adrenal gland, adherent, top dose 2 µM) | 0.39 | 62.1 nM
72 | SW48 (large intestine, adherent, top dose 0.25 µM) | 0.828 | 153 nM
73 | SW620 (large intestine, adherent, top dose 0.25 µM) | 0.862 | 174 nM
74 | SW626 (ovary, adherent, top dose 0.25 µM) | 0.807 | 158 nM
75 | SW684 (fibrosarcoma, adherent, top dose 0.25 µM) | 0.834 | > 250 nM
76 | SW756 (cervix, adherent, top dose 0.25 µM) | 0.888 | > 250 nM
77 | SW780 (bladder, adherent, top dose 0.25 µM) | 0.58 | 26.5 nM
78 | SW900 (lung squamous cell carcinoma, adherent, top dose 2 µM) | 0.5 | 125 nM
79 | SW948 (large intestine, adherent, top dose 0.25 µM) | 0.952 | > 250 nM
80 | SW954 (urogenital system, adherent, top dose 0.25 µM) | 0.853 | 200 nM

Reference: the supplement of paper PMC4967469
